Here are results for 17 molecules from the antibiotic and cytotoxicity screens of Wong et al. (2023).

Some of the results follow.

For the assay, the system named is S. aureus RN4220. The assay is described as follows: growth inhibition call (relative growth <= 0.2). Conditions: 50 µM.
Take `C[C@H]1CN([C@@H](C)CO)C(=O)c2cccc(NC(=O)NC3CCCCC3)c2O[C@@H]1CN(C)Cc1ccc(Cl)c(Cl)c1`: the growth inhibition call is “inactive”.
In the case of `C[C@H](CO)N1C[C@H](C)[C@@H](CN(C)C(=O)Nc2ccc(C(F)(F)F)cc2)Oc2ccc(NS(=O)(=O)c3ccc(Cl)cc3)cc2C1=O`, the growth inhibition call is “inactive”.
On to `Cc1ccnc(NC(=O)Cn2cnc3c2c(=O)n(C)c(=O)n3C)c1`, for which the growth inhibition call was “inactive”.
As for `Cn1cccc1CNCCCN1CCOCC1`, the growth inhibition call is “inactive”.
The same measure for `CC(C)(Oc1ccc(C2CC2(Cl)Cl)cc1)C(=O)O` (configuration not stated): “inactive”; for `COC(=O)CCc1c(c/2[nH]c1/C=C/1\N=C(/C=C/3\N=C(/C=C/4\N/C(=C2)[C@]2(C)[C@H](C(=O)OC)C(=CC=C42)C(=O)OC)C(=C3C=C)C)C(=C1CCC(=O)O)C)C`: “inactive”; for `C[C@@H]1CN([C@@H](C)CO)C(=O)Cc2cc(NC(=O)CCN3CCOCC3)ccc2O[C@@H]1CN(C)S(=O)(=O)c1cn(C)cn1`: “inactive”.
The same measure for `C[C@@H]1CN([C@@H](C)CO)C(=O)CCCn2cc(nn2)CO[C@@H]1CN(C)S(=O)(=O)c1ccc(-c2ccccc2)cc1`: “inactive”; for `CC(C)NC(=O)N(C)C[C@@H]1Oc2ccc(NC(=O)Cc3ccccc3)cc2CC(=O)N([C@@H](C)CO)C[C@@H]1C`: “inactive”.
For `N=C(N)c1ccc2nc(-c3cc(CC(=O)N[C@@H](CC(=O)O)C(=O)O)cc(-c4cc(S(N)(=O)=O)ccc4O)c3O)[nH]c2c1`, the growth inhibition call was “inactive”.
Turning to `C[C@@H]1CCCCO[C@@H](CN(C)C(=O)Nc2ccc(F)cc2)[C@H](C)CN([C@H](C)CO)C(=O)c2cc(NC(=O)c3ccccc3)ccc2O1`, the growth inhibition call was “inactive”.
Regarding `NNC(=O)Cn1nnc(N2CCCC2)n1`, the growth inhibition call was “inactive”.
As for `CC1(C)C(=O)NCCN1C(=O)Cc1ccccc1`, the growth inhibition call was “inactive”.
In the case of `COc1ccccc1NC(=O)N(C)C[C@H]1Oc2cc(Br)ccc2S(=O)(=O)N([C@H](C)CO)C[C@@H]1C`, the growth inhibition call was “inactive”.
The same measure for `O=C(C[C@H]1CC[C@@H]2[C@H](COC[C@@H](O)CN2C(=O)c2cccnc2)O1)NCC1CC1`: “inactive”.
Consider `COCCNC(=O)C[C@@H]1CC[C@H]2[C@@H](COC[C@@H](O)CN2S(=O)(=O)c2ccccc2C)O1`, for which the growth inhibition call is “inactive”.
`C[C@@H]1CN([C@@H](C)CO)C(=O)Cc2cc(NC(=O)CCN3CCOCC3)ccc2O[C@H]1CN(C)S(=O)(=O)c1ccc(Cl)cc1`: the growth inhibition call is “inactive”.
